Data reported in article PMC8529494.
These are yes or no findings as the source states them, for the method shown. In cells and extracts the contact can be indirect. Some entries that bind do so weakly or less than the wild type.

The chains behind the UniProt entries cited, without tags or fusion partners. Where a name states a change or a piece, a line headed by the entry shows the natural chain unless it says otherwise. A line that says so, or that is headed by a name, gives the form on record, which may keep a tag or linker.
UniProt Q92794: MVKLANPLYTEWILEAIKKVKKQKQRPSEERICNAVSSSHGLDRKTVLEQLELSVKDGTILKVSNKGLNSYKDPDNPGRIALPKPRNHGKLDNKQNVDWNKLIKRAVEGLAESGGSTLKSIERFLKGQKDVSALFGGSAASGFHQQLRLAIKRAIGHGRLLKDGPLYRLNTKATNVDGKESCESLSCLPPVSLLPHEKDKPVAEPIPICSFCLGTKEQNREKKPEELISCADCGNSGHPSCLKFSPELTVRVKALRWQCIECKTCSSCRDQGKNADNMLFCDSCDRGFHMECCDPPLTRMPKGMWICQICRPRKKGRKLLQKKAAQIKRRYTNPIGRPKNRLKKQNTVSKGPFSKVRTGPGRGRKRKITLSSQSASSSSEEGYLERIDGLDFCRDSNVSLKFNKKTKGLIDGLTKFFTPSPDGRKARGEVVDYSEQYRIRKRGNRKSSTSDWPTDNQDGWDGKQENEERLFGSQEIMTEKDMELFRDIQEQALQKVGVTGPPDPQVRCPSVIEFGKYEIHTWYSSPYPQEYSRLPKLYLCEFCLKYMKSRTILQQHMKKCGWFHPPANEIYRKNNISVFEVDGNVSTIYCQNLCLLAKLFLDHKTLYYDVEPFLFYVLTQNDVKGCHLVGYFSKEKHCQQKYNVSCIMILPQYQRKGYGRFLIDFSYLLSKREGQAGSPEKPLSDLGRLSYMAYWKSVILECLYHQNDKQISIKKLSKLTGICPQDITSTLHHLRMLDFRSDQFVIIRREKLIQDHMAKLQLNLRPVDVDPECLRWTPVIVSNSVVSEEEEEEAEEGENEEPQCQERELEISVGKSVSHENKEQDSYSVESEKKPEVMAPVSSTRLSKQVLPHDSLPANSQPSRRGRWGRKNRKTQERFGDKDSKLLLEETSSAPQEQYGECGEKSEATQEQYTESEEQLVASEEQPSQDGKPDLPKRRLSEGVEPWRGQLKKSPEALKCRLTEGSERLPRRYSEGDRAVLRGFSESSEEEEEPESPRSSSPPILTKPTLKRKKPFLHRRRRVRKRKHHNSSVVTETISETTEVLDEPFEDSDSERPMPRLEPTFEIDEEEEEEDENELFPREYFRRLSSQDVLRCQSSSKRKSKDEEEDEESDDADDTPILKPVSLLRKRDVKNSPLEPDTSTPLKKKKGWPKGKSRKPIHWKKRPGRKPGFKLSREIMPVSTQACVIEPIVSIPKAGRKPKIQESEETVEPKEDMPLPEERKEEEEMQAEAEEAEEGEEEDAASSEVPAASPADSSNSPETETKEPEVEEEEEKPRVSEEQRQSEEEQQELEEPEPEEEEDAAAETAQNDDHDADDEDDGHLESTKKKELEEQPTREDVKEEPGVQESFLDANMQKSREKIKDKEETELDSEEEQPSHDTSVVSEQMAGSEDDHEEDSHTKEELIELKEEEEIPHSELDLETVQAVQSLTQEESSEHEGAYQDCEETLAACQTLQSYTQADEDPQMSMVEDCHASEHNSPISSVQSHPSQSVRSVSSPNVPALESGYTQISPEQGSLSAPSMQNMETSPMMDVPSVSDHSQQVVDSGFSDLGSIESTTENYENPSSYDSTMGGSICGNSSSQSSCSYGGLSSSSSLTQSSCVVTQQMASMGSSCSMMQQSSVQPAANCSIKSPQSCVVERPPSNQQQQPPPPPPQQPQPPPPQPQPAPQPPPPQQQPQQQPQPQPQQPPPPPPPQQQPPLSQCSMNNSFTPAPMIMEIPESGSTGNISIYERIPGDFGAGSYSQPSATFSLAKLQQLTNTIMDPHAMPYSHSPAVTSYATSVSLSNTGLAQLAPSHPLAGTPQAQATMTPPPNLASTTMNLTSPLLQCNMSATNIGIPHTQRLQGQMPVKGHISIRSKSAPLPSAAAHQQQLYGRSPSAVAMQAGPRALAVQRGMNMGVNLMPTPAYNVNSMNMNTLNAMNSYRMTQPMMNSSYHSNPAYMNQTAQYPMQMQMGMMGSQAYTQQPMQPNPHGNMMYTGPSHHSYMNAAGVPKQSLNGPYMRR
UniProt P84022: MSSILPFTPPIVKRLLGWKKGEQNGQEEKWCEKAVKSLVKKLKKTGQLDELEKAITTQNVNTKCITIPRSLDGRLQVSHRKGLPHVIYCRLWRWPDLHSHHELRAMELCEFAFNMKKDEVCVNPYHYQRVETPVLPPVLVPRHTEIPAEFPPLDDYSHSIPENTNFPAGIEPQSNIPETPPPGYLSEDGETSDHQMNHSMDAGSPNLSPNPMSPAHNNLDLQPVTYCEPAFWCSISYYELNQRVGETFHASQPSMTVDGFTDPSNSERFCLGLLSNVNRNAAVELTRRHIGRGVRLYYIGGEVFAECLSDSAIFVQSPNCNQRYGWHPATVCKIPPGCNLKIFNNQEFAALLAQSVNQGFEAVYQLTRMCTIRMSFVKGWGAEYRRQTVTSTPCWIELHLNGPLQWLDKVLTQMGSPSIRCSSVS
SMAD3 K20/117Q, acetylation-mimetic mutant, in HEK293T cells (P84022, form named): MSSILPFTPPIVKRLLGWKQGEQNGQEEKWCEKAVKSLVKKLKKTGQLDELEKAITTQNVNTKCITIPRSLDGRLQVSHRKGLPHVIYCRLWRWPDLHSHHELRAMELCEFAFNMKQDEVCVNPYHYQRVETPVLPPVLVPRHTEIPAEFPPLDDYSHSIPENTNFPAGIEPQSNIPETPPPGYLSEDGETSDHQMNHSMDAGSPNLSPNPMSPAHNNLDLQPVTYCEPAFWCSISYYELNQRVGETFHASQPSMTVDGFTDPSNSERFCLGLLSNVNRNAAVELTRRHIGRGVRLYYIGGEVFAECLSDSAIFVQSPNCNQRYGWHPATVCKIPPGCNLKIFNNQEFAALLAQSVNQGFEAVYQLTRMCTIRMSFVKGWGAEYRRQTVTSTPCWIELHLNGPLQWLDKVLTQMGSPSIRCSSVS
SMAD3 K20/117R, acetylation-deficient mutant, in HEK293T cells (P84022, form named): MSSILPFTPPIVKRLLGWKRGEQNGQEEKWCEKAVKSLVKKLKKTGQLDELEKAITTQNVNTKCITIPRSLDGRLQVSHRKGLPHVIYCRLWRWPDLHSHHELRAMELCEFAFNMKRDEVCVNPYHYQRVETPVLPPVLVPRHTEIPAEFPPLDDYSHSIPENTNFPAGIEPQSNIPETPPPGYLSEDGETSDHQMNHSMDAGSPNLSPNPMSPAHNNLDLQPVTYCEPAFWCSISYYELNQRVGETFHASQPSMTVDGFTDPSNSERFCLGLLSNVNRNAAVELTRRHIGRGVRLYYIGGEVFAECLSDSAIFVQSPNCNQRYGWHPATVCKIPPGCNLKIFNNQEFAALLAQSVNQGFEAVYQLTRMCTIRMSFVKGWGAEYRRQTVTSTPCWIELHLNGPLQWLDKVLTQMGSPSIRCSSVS

Columns and labels:
[1] = target: KAT6A, exogenous, in HEK293T cells (UniProt Q92794); experiment: co-IP; IP and western blot of HEK293T cells coexpressing KAT6A and SMAD3 WT or mutants (Figure 2B, F, M)
GST-KAT6A = GST-KAT6A (UniProt Q92794); experiment: pull-down; purified GST-KAT6A or GST incubated with cell extracts from MDA-MB-231 cells stimulated with or without TGF-β1 (5 ng/mL, 2 h); only the target purified
[2] = target: KAT6A, endogenous (human (endogenous in MDA-MB-231)) (UniProt Q92794); experiment: co-IP; endogenous KAT6A and SMAD3 in MDA-MB-231 cells (Figure 2C)

Substance | binding [1] | binding (GST-KAT6A) | binding [2]
SMAD3 K20/117Q, acetylation-mimetic mutant, in HEK293T cells (from UniProt P84022 1-425) | binds | – | –
SMAD3 K20/117R, acetylation-deficient mutant, in HEK293T cells (from UniProt P84022 1-425) | binds | – | –
SMAD3 wild type, exogenous, in HEK293T cells (from UniProt P84022 1-425) | binds | – | –
SMAD3, endogenous (from UniProt P84022 1-425) | – | binds | binds
